Source: the supplement of paper PMC10126150
Sequences with one replicate were seen in a single cluster, so their values are uncertain.

Test system: ATP
Experiment: switch fluorescence ratio, 500 uM ATP over buffer (Cy3 cluster intensity, sum of 5 cycles each) (fold (ratio)); higher = stronger signal-on switching upon ATP binding; sequences stand for … in TCGTCGGCAGCGTCAGATGTGTATAAGAGACAGTTTTTTTTTTTTTTTTTTTTTTTTT…TC
Conditions: aptamer strand: ATP DNA aptamer (quencher-CACCTGGGGGAGTATTGCGGAGGAAGG + anchor), 100 nM annealed; ATP concentration: 500 uM; one replicate
How it was run: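 Switching-strand clusters labelled with Cy3 on a modified Illumina MiSeq flow-cell were annealed to 100 nM quencher-labelled ATP aptamer, imaged in selection buffer, and re-imaged after 15 min with 500 uM ATP at 22 °C. This was done over five cycles with NaOH stripping and re-annealing in between. The fluorescence ratio is summed target-cycle over summed buffer-cycle Cy3 intensity per cluster, averaged per switch-domain sequence, excluding clusters outside 100-1000 RFU.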
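Further: ATP exposure 15 min at 22 °C before imaging.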

Sequence	switch fluorescence ratio
GAGAAGGGTA	0.975
TATTCGGGAA	0.987
CAGTTTCTCA	1.02
GTTAGACGAG	1.01
CGCCATGAGC	1.07
ATTCCGTAAG	1.16
TAGACCTTTT	1
GCCCTTTTGG	0.961
ACCCCCTGTG	4.91
AGAGCGACCA	0.972
TATAATTCGA	0.97
ACGATTCCAG	1.12
GGCGCCATTG	0.995
TTTTTGCCGT	0.998
ACGTTGTTCT	1.01
GATGGGCTCC	0.97
ACTAAAGAAT	0.976
TGCGTACTG	1.02
AAAGCCTGAG	1.28
GAGCTTCACA	0.982
GCGCATGTCG	1.02
AACCACTTCT	1.03
GGAAGTCGCG	1.01

Sequence	switch fluorescence ratio
CTCGCTGGGA	0.948
TGTTTCCGCT	1.05
CATATGTTAT	0.996
GCCCGGTTTA	1.02
GAGTAAGTTA	1.03
GTCGCTACCC	1.12
AAGCTACAGG	1.09
GGTATCGCGT	0.966
GAGAATAGTT	1.01
TCTAATAAA	1.01
CCGTATGTCC	1.02
ACGATAGTCG	1.01
ACCCATCCGT	1.19
TAGGTGGC	1.01
GCGGCGTGTG	1.04
TATGCTATCG	1.08
TTTTAATGCT	0.97
TTCATCG	1.02
CTTATTATGT	1
CATTAGGGAT	0.993
GTGGTCTAGA	1.01
TTGCCCACGC	1.03
CCGGACGGAT	0.968

Sequence	switch fluorescence ratio
TTGGACACAC	1.03
TTCATCGGAC	1.02
GCGATCCAGG	2.9
GGGGAGG	0.948
GCTGGAATCG	0.989
CATCACGTGG	0.97
TAGAGTGCGG	0.916
ACAGACAGTG	0.992
TGGAGGGGTG	0.996
ACCGCTCAC	4.33
TTAAGTTGG	0.948
GCTAATGTAA	0.987
GATGGTCTG	1.04
ACGGTAGGGA	1.05
TTTACATTCA	1.02
AACAGCGGAC	1.27
CCGGAAGTTC	2.87
GTATCCGTGT	0.962
GCTTCAAAAT	1
GGCGACGTGG	1.01
CCGATCCGGG	1.02
TTAGATGGCA	1.27
TGGTTG	0.979

Sequence	switch fluorescence ratio
TCTAACTGTG	1.01
AAGGCAGATT	0.994
GACTGTGGTA	1
TTGGAACGCC	1.03
GTTTTCTCTG	1.01
TCTCTCTTCT	0.995
TAACTGGGCC	1.07
ATGAGATGG	0.996
GCAACGGCAT	1.03
ACGGTTATGG	1.03
GTACGGGGGG	1.01
GGCCGACTTA	1.02
TACACAGGCG	1.09
TATTGTGGC	1
CGCCTGGTTT	1.02
AACCCGGAAA	1.01
CGGCCGCTTA	1.7
TTGTGCGCAT	2.24
CTATTACGAC	1.12
TCTGGGATG	0.981
AAACACACCT	1.37
ACCGTCGGGT	0.981
TGTGGCGTCA	1.04

Sequence	switch fluorescence ratio
TGCTTAACTA	0.991
GGAATGTGTC	0.998
GTCGGATAAA	1.13
AGGCGATTTG	0.967
CCAGTCTACG	1.01
AGATGCAGGG	0.947
CTCCTCATGA	1.87
AGACAGTTTG	0.905
GGGCCTGTCC	1.03
TCGTAATGAA	1.04
AAAGGGGCGA	1.17
AAGCGGGATT	0.993
GACTATAAGT	1.01
CGGATATTGG	0.95
AGCGTCCT	0.983
ATTGCCACCT	0.966
GGATAAGGCA	1.03
GCCCGTTGCT	1.04
CAAGTTTCGT	0.989
TACTAGCGCT	0.988
AGGCATATGA	0.962
CAGCGCTCCG	1.14
TGGTCTAGTT	1.01

Sequence	switch fluorescence ratio
AAATCGCACG	1.1
TGTATAGAGA	1.01
CTACTGCGCA	1.33
ACTAAAAACG	1.02
GGACGTAATA	2.72
GAGTGAACGC	0.853
ATAGTTTGGC	1.07
TCCGTTGTCG	1.03
TCAATGCAGG	1.06
CTGTCCTAGC	0.993
AACCATCGAC	1.12
CGGAATCAAA	0.979
AATTCATGAA	0.948
GAGCGCCAAG	0.982
GGCTGGTGGG	1.01
CCATCCATTT	1.13
TGAGACTGAT	0.988
CACGGGGACA	1.08
CGAGTGATAG	1.27
GCGAAACCCG	1.04
ATATCTCTTT	0.995
GGGAAGTGCA	0.984
CGGAGAGAAG	0.981

Sequence	switch fluorescence ratio
CATCAGTTGG	1
GTACAAAATA	0.993
TAGATCCG	1.08
TTTTGCGACA	0.993
ACGGGCACTG	1.11
AAAACGTAG	1.01
ATTAGCGATA	1.16
TACTCTCCGT	1.17
ATCTTCGTTC	1.02
AGTGAGGTGG	1.01
TTGTTAGTGT	1.06
TTCAACGCCT	1.08
CCTGCGTGG	1.1
TGCTGATATT	0.989
CGCGCACTCA	1.78
GGCTGCCTAC	1.06
GGACCCAGAG	0.974
AAATGGTAGT	0.979
ACATGAACGA	1.72
CCTATACACT	1.07
